In all, about 310,000 compounds went through this assay and about 14,000 (4.5%) showed an effect of 50% or more. Effects have a minus sign here. The list shows a part of the results.
Each compound was assayed against human ether-à-go-go-related gene (hERG) potassium channel (human, UniProt Q12809) (assay: primary screen, population patch clamp on CHO cells stably expressing hERG).
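Also: peak tail current of the secondary pulse compared with the same well before compound.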

Chain of human ether-à-go-go-related gene (hERG) potassium channel (Q12809 whole entry, looked up): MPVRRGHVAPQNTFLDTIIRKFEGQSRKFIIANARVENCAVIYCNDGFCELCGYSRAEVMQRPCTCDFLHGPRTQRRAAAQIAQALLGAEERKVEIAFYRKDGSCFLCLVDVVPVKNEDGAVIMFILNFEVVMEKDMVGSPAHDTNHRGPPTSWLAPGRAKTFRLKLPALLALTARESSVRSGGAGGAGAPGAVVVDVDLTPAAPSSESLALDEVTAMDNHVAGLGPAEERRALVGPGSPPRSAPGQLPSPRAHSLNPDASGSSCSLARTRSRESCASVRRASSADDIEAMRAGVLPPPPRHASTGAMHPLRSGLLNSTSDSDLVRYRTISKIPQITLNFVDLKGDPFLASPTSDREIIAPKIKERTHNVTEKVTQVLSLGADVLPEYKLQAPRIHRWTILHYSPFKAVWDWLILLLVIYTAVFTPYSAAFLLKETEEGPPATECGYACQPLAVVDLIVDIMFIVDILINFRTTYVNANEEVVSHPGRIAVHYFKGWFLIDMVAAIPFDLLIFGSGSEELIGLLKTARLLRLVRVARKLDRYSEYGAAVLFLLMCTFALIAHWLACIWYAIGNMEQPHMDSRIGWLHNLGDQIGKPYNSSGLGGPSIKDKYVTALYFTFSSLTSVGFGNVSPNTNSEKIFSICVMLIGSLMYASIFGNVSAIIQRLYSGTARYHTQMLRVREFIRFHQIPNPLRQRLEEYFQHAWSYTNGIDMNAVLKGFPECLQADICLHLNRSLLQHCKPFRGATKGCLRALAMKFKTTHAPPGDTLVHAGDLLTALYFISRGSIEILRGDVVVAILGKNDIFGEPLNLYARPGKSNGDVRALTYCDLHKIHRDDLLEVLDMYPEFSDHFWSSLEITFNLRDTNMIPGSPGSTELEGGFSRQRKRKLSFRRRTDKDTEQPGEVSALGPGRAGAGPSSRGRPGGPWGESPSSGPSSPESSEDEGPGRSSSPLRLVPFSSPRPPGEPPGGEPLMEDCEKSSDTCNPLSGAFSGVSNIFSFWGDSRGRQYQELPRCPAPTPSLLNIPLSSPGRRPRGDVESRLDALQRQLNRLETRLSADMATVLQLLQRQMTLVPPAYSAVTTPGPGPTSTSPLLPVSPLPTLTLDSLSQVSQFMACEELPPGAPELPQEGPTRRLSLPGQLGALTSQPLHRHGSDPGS

First: COc1ccccc1NC(=O)N[C@@H](Cc1c[nH]c2ccccc12)C(=O)NN
Second: O=C(Nc1ccccc1Oc1ccsc1C(=O)O)c1ccccc1F
The “hERG current change (%, negative = inhibition) at 10uM” value of the first is lower: 6.25% for the first, 17.9% for the second.

Going from COC(=O)Cc1ccc(NC(=S)N2CCN(c3cc(Cl)ccc3C)CC2)cc1 to COc1cc2ccccc2cc1C(=O)N1CCN(c2ccccc2O)CC1, the “hERG current change (%, negative = inhibition) at 10uM” value falls from 12.3% to -59.7%.

Compared with COc1cc(F)ccc1S(=O)(=O)N1CCN(C23CC4CC(CC(C4)C2)C3)CC1, CCS(=O)(=O)N1CCN(S(=O)(=O)c2ccc(Cl)s2)CC1 is higher in “hERG current change (%, negative = inhibition) at 10uM” value: -36.1% for the first, 8.16% for the second.

First: COc1ccc(NC(=O)CC2SC(=NCC3CCCO3)NC2=O)c([N+](=O)[O-])c1 (stereo not shown)
Second: CC1=C(C(=O)OCC2CCCO2)C(c2ccccc2)C2=C(CCCC2=O)N1 (stereo not shown)
The “hERG current change (%, negative = inhibition) at 10uM” value of the first is lower: 1.17% for the first, 11.2% for the second.

Compared with CC(C)Sc1oc(-c2ccco2)nc1S(=O)(=O)c1ccc(F)cc1, CC(C)CNc1oc(-c2ccc(F)cc2)nc1C#N is higher in “hERG current change (%, negative = inhibition) at 10uM” value: -11.4% for the first, 3.91% for the second.

Compared with CCc1ccc(N(C(=O)c2snc(C(N)=O)c2N)C(C(=O)NCCC(C)C)c2c[nH]c3ccccc23)cc1 (stereo not shown), CC(OC(=O)c1cccc(N2C(=O)c3ccccc3C2=O)c1)C(=O)Nc1ccc(N(C)C)cc1 (stereo not shown) is higher in “hERG current change (%, negative = inhibition) at 10uM” value: 3.62% for the first, 13.2% for the second.

Compared with Nc1ncc(-c2cc3ccccc3oc2=O)s1, Cc1ccccc1NC(=O)c1sc2nc[nH]c(=O)c2c1C is lower in “hERG current change (%, negative = inhibition) at 10uM” value: 4.52% for the first, 3.94% for the second.

Compared with COC(=O)Nc1ccc(S(=O)(=O)N2CCC(Cc3ccccc3)CC2)cc1, CCn1cc(C(=O)OCC(=O)Nc2ccc(S(=O)(=O)N3CCCC3)cc2)c(=O)c2ccc(C)nc21 is higher in “hERG current change (%, negative = inhibition) at 10uM” value: 1.4% for the first, 10.5% for the second.

First: C/C(=N\NC(=O)c1ccn(C)n1)c1ccco1
Second: COc1cccc(NC(=O)c2ccco2)c1
The “hERG current change (%, negative = inhibition) at 10uM” value of the first is higher: 16.6% for the first, 8.44% for the second.

First: CC(C)c1ccc(-n2c(O)c(/C=N/N3CCOCC3)c(=O)[nH]c2=S)cc1
Second: COc1ccc(O)c(C(=O)c2cnn(C(=O)c3cccc(S(=O)(=O)N4CCOCC4)c3)c2)c1
The “hERG current change (%, negative = inhibition) at 10uM” value of the first is lower: -10.9% for the first, 12.4% for the second.

First: COc1cc(/C=C2/C(=N)N3OC(C)=CC3=NC2=O)ccc1OCCOc1ccc(C)cc1
Second: Cc1ccc(OCC(=O)NC(=S)Nc2ccc(Br)cn2)cc1
The “hERG current change (%, negative = inhibition) at 10uM” value of the first is higher: 20% for the first, 9.16% for the second.

Compared with COc1ccccc1/C=C/C(=O)OCC(=O)N1CCc2ccccc21, COc1cc(/C=N/NC(=O)c2ccccn2)ccc1OC(=O)c1ccccc1Br is lower in “hERG current change (%, negative = inhibition) at 10uM” value: 1.68% for the first, -1.22% for the second.

First: COC(=O)C1=C[C@@H](C(=O)OC)[C@@H]2C3=C(C(=O)C2(C)C)[C@H](c2ccccc2)[C@@H]2C(=O)N(C)C(=O)[C@@H]2[C@@H]3C1
Second: CCC1C(=O)N=C(SCC(=O)Nc2ccccc2)NC1=O (stereo not shown)
The “hERG current change (%, negative = inhibition) at 10uM” value of the first is lower: 7.08% for the first, 7.99% for the second.

Compared with CSc1cccc(N2C(=O)C3CCCN3C2=S)c1 (stereo not shown), CSC1=NCCN1C(=O)c1cccc(Br)c1 is lower in “hERG current change (%, negative = inhibition) at 10uM” value: 16.6% for the first, -11.2% for the second.

Compared with O=C(Nn1c(C2CCCCC2)nc2ccccc2c1=O)c1ccc(Cl)c([N+](=O)[O-])c1, O=C(Oc1ccc(Cl)c2cccnc12)c1cccc([N+](=O)[O-])c1 is higher in “hERG current change (%, negative = inhibition) at 10uM” value: -9.26% for the first, -6.11% for the second.

Going from Cc1ccc(CN2CC(C(=O)N(C)CC(=O)Nc3cccc(F)c3)CC2=O)cc1 (stereo not shown) to COc1ccc(NC(=O)CN(C)C(=O)CCCc2nc3ccccc3s2)cc1, the “hERG current change (%, negative = inhibition) at 10uM” value falls from -7.16% to -27.7%.

Going from CCn1c(=O)c2ccccc2n2c(SCC(=O)N3CCc4ccccc4C3)nnc12 to Cn1c(Cn2c(=O)sc3ccccc32)nnc1SCC(=O)NCCc1ccccc1, the “hERG current change (%, negative = inhibition) at 10uM” value rises from -32.7% to -13.2%.

First: CSCc1ccc(C(=O)NC2CC(C)(C)Cc3c2cnn3-c2ccc(F)cc2)o1 (stereo not shown)
Second: O=C1C(=O)N(Cc2cccnc2)C(c2ccccn2)/C1=C(/O)c1ccc(F)cc1 (stereo not shown)
The “hERG current change (%, negative = inhibition) at 10uM” value of the first is lower: -56.5% for the first, 7.66% for the second.

Going from COc1cccc(C2=CC(=O)C[C@H](c3ccc(Cl)cc3)C2)c1OC to COc1ccc(-c2ccc(F)cc2)cc1[C@H]1[C@H]2C=CC[C@@H](C)[C@@H]2C(=O)N1Cc1ccccc1, the “hERG current change (%, negative = inhibition) at 10uM” value falls from 19.1% to 8.24%.

Going from CCN(CC)C(=O)c1cncc(C(=O)N(CC)CC)c1-c1ccccc1 to Cc1ccccc1C(=O)NCCCNC(=O)c1cnccn1, the “hERG current change (%, negative = inhibition) at 10uM” value rises from -4.08% to 13.5%.

Going from CN(C)c1cccc(C(=O)Nc2cc(C(F)(F)F)ccc2-n2cnc3ccccc32)c1 to CCn1nc(NS(=O)(=O)c2ccc(C)cc2)c2cc3ccccc3nc21, the “hERG current change (%, negative = inhibition) at 10uM” value rises from -18.6% to 1.64%.

First: Cc1ccc(OC2CCN(C(=O)C3CCC(=O)N(C4CC4)C3)CC2)cc1 (stereo not shown)
Second: NC(=O)C1(N2CCCCC2)CCN(CC(=O)Nc2ccc(Oc3ccccc3)cc2)CC1
The “hERG current change (%, negative = inhibition) at 10uM” value of the first is higher: -15.8% for the first, -67.8% for the second.

First: Cc1[nH]c2ccccc2c1/C=N/NC(N)=S
Second: CCC(=O)Nc1c(C)c(CC)nc2ccccc12
The “hERG current change (%, negative = inhibition) at 10uM” value of the first is higher: 2.1% for the first, -9.49% for the second.

Compared with Cc1csc(NC(=O)CSC2=NS(=O)(=O)c3cc(F)ccc3N2)n1, Cc1ccc(NC(=O)CSc2n[nH]c(-c3ccncc3)n2)cc1C is lower in “hERG current change (%, negative = inhibition) at 10uM” value: 11.2% for the first, 10.5% for the second.

Compared with CC(C)(C)OC(=O)N1Cc2cc3ccccc3nc2C1CO (stereo not shown), COc1ccc2ccc(C(C)(C(C)=O)C(=O)OC(C)C)cc2c1 (stereo not shown) is lower in “hERG current change (%, negative = inhibition) at 10uM” value: 8.85% for the first, 1.48% for the second.

Going from CCc1c(C)sc(NC(=S)Nc2nc(C)cc(C)n2)c1C(=O)OC to CC(=O)c1c(C)[nH]c(C(=O)Nc2ccc(Cl)c(S(=O)(=O)N(C)C)c2)c1C, the “hERG current change (%, negative = inhibition) at 10uM” value falls from 27.1% to -15.6%.

Compared with CCCCCCCCOC(=O)CCc1c(C)[nH]c(=S)[nH]c1=O, CCCCCOc1ccc(NS(C)(=O)=O)cc1 is lower in “hERG current change (%, negative = inhibition) at 10uM” value: 5.35% for the first, -5.55% for the second.

Going from CC(C)CN(C(=O)CSc1nncs1)c1c(N)n(CC(C)C)c(=O)[nH]c1=O to CCOC(=O)c1c(NC(=O)CN2CCN(C(=O)c3ccco3)CC2)sc(C(N)=O)c1C, the “hERG current change (%, negative = inhibition) at 10uM” value falls from 17.5% to -20.1%.

First: COc1ccc2[nH]c(=O)c(CN(C(C)=O)c3ccc(C)cc3C)cc2c1
Second: COc1ccc(C(=O)N2CCN(Cc3cc(OC)ccc3OC)CC2)cc1.O=C(O)C(=O)O
The “hERG current change (%, negative = inhibition) at 10uM” value of the first is higher: 1.02% for the first, -36% for the second.

First: O=C(O)CCCn1cc(NC(=O)COc2ccc(F)cc2F)cn1
Second: C=CCc1ccccc1OCCNCCCOC.O=C(O)C(=O)O
The “hERG current change (%, negative = inhibition) at 10uM” value of the first is higher: 13.6% for the first, -1.3% for the second.

Compared with CN(C(=O)COC(=O)/C=C/c1ccc(C(F)(F)F)cc1)C1CCS(=O)(=O)C1 (stereo not shown), CC(C)(C)NC(=O)COC(=O)c1ccc(Cl)nc1 is lower in “hERG current change (%, negative = inhibition) at 10uM” value: 9.35% for the first, 3.55% for the second.

Going from O=Cc1cnc2ccccc2c1-c1ccccc1 to CSc1cnn(Cc2ccccc2)c(=O)c1SCc1ccccc1, the “hERG current change (%, negative = inhibition) at 10uM” value rises from -19.1% to -9.54%.

Going from CN1CCN(C2=Nc3c(Cl)cc(Cl)c4cccc2c34)CC1 to O=C(c1ccc(Cn2c(=S)[nH]c3cc4c(cc3c2=O)OCO4)cc1)N1CCN(c2ncccn2)CC1, the “hERG current change (%, negative = inhibition) at 10uM” value falls from 5.23% to 2.15%.

First: COCCOc1cc(NC(=O)c2cccc(OC)c2)c(Cl)cc1Cl
Second: COc1cccc(C2(O)CCN(C(=O)Cc3cccnc3)CC2)c1
The “hERG current change (%, negative = inhibition) at 10uM” value of the first is lower: 6.22% for the first, 15.9% for the second.

First: CC1=NOC2(C1)/C(=N/O)CCC/C2=N\O (stereo not shown)
Second: Cc1cc(=O)oc2cc3c(cc12)CCCN3
The “hERG current change (%, negative = inhibition) at 10uM” value of the first is lower: 9.67% for the first, 20.7% for the second.

First: CN(C)/C=C1\NC(=S)N(c2ccccc2)C1=O
Second: CCOC(=O)c1c(-c2ccccc2)oc2ccc(OCC(O)CNCCN(C)C)cc12 (stereo not shown)
The “hERG current change (%, negative = inhibition) at 10uM” value of the first is higher: 28.4% for the first, -21.6% for the second.

Going from Cc1oc(-c2ccccc2F)nc1CSCC(=O)NC1CCC(C)CC1 (stereo not shown) to Cc1c(C(=O)NC2CCC(C)CC2)oc2ccccc12 (stereo not shown), the “hERG current change (%, negative = inhibition) at 10uM” value rises from -25.6% to 4.77%.

First: N#Cc1cnn2ccc(-c3ccc4c(c3)CCC4)nc12
Second: Clc1ccc(-c2cn3ccccc3n2)cc1
The “hERG current change (%, negative = inhibition) at 10uM” value of the first is higher: 14.4% for the first, -4.25% for the second.

Compared with Nc1n[nH]c(C2CCCCC2)n1, CC1CCCCC1NC(=O)CSC1=Nc2ccccc2C2CC=NN12 (stereo not shown) is lower in “hERG current change (%, negative = inhibition) at 10uM” value: 17.7% for the first, -2.41% for the second.

Going from O=[N+]([O-])c1ccc2c(c1)Nc1nc3ccccc3nc1N2 to Br.CCOCc1cn(CC(=O)c2ccc([N+](=O)[O-])cc2)c(C)nc1=N, the “hERG current change (%, negative = inhibition) at 10uM” value falls from 12.8% to -17.8%.

First: Cn1c(Cc2ccccc2)nnc1SCC(=O)Nc1cccc(S(=O)(=O)NC2=NCCCCC2)c1
Second: Nc1c(C(=O)NCc2ccccc2)nnn1Cc1cccc(Cl)c1
The “hERG current change (%, negative = inhibition) at 10uM” value of the first is lower: -14.8% for the first, 12.8% for the second.

Compared with Cc1ccc(NC(=O)NC2CCCc3ccccc32)cc1 (stereo not shown), O=C(Nc1ccccc1)/C(=C/c1cccnc1)NC(=O)c1ccco1 is lower in “hERG current change (%, negative = inhibition) at 10uM” value: -4.06% for the first, -4.49% for the second.

Going from COC(=O)NNC(=S)NCc1ccccc1 to CCOC(=O)CNC(=S)N(Cc1ccccc1)Cc1ccccc1F, the “hERG current change (%, negative = inhibition) at 10uM” value falls from 8.48% to -16.2%.

Compared with CCCCN(CCCC)S(=O)(=O)c1ccc(C(=O)Nc2nnc(CSC)o2)cc1, C#CCOCCOCCOCCNc1nc(N2CCN(C(=O)CCCCCCCCCCNC(=O)[C@H](CO)n3cc(CCCSC)nn3)CC2)nc(N2CCN(C(=O)CCCCCCCCCCNC(=O)[C@H](CCCCN)n3cc(C[C@@H](C)CC)nn3)CC2)n1 is higher in “hERG current change (%, negative = inhibition) at 10uM” value: -3.41% for the first, -0.212% for the second.

— paper PMC4336329 (PLoS ONE, 2015)
